The results in this text go back to article PMC4336329 (PLoS ONE, 2015).

In all, about 310,000 compounds went through this assay and about 14,000 (4.5%) showed an effect of 50% or more. The effect is printed as a negative number. This is one part of the list.
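Note: peak tail current of the secondary pulse compared with the same well before compound.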

For the experiment, the target named is human ether-à-go-go-related gene (hERG) potassium channel (human, UniProt Q12809). The experiment is described as follows: primary screen, population patch clamp on CHO cells stably expressing hERG.
Sequence of human ether-à-go-go-related gene (hERG) potassium channel (Q12809 whole entry, looked up): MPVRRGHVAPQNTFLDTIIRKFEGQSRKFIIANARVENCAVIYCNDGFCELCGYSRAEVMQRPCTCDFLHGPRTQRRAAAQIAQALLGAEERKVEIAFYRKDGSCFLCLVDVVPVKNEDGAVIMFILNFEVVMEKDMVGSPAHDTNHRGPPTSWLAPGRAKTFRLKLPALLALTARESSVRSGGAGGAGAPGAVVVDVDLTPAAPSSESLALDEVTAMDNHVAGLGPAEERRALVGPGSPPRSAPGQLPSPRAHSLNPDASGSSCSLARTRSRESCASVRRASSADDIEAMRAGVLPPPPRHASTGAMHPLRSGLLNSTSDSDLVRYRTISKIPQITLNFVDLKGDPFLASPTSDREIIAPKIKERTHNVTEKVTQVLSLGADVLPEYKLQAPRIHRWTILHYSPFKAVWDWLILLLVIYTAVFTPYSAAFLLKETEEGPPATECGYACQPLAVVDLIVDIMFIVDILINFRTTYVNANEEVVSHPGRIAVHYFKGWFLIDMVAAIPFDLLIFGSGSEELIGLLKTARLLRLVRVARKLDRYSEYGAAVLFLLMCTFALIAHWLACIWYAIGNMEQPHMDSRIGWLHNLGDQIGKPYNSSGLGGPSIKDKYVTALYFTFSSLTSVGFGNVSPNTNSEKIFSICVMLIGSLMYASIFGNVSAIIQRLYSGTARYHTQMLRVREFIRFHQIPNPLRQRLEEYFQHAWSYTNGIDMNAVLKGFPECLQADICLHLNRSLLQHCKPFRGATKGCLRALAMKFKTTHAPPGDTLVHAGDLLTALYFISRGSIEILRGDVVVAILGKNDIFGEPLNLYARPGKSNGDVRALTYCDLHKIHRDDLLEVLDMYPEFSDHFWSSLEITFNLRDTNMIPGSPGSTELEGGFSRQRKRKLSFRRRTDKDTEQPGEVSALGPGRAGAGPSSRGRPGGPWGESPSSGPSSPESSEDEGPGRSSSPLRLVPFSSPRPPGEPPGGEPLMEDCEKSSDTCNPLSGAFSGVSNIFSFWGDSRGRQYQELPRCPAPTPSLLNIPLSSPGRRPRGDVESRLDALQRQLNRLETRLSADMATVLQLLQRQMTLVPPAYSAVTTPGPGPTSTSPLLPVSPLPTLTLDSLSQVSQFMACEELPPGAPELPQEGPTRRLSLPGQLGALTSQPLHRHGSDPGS
As for `Cc1sc2nc(SCc3ccccc3)n(Cc3ccco3)c(=O)c2c1C`, the “hERG current change (%, negative = inhibition) at 10uM” value is recorded as -2.09%.
Next, `COc1ccc(C)cc1NC1=NCCCS1`: 19%.
In the case of `CC(=O)Nc1ccc(NC(=O)CSc2n[nH]c(-c3cccs3)n2)cc1` it was -5.05%; in that of `Cc1nn(Cc2ccc(Cl)cc2)c(C)c1NC(=O)CCCn1nc([N+](=O)[O-])c(Cl)c1C`, -64%.
Take `CC(=O)Nc1ccc(NC(=O)C(C)N2CCN(S(=O)(=O)c3ccc(C)cc3)CC2)cc1` (centres unmarked): the “hERG current change (%, negative = inhibition) at 10uM” value is 17.1%.
For the compound `COc1cccc(-c2nc(CS(=O)(=O)CC(=O)N3CCc4ccccc43)c(C)o2)c1`, the “hERG current change (%, negative = inhibition) at 10uM” value was 11.3%.
Turning to `CC(=O)N1CCN(C(=O)COc2ccc(N(C)S(=O)(=O)c3cccs3)cc2)CC1`, the “hERG current change (%, negative = inhibition) at 10uM” value was -14.7%.
`C/C(CC(=O)NCc1ccco1)=N\NC(=O)C(c1ccccc1)c1ccccc1`: the “hERG current change (%, negative = inhibition) at 10uM” value is on record as -9.57%.
In the case of `NNC(=O)CC(=O)NC1(Cc2ccc(O)cc2)CCCCC1` it was -27.5%; in that of `O=C(CN1CCN(Cc2ccccc2)CC1)NC(=O)NCc1ccco1`, -30.3%; in that of `O=C(COc1ccc2c(c1)oc(=O)c1ccccc12)NCC1CCC(C(=O)O)CC1` (centres unmarked), 4.69%.
Consider `CC(=O)c1sc(N/N=C/c2cccc([N+](=O)[O-])c2)nc1C`, for which the “hERG current change (%, negative = inhibition) at 10uM” value is 25.2%.
`O=C(Nc1ccc(S(=O)(=O)Nc2ccccn2)cc1)c1cccc([N+](=O)[O-])c1`: the “hERG current change (%, negative = inhibition) at 10uM” value is -4.13%.
With `NS(=O)(=O)c1ccc(CCNC(=O)CCc2nc3sc4c(c3c(=O)[nH]2)CCCC4)cc1`, the “hERG current change (%, negative = inhibition) at 10uM” value is 17.6%.
For the compound `CS(=O)(=O)c1cccc(S(=O)(=O)N2CCCCCC2)c1`, the “hERG current change (%, negative = inhibition) at 10uM” value was 10.7%.
In the case of `O=C1N=C(N2CCCCC2)SC1=C1CCCC1` it was 15.5%.
In the case of `O=Cc1cccc(OC(=O)Nc2ccccc2)c1` it was 6.95%.
In the case of `COc1ccc(NC(=O)Cn2nnc(C(=O)NCc3ccco3)c2N)cc1` it was 17%; in that of `COc1c(OC(C)=O)ccc(/C=C/c2ccc3cccc(OCc4ccccc4)c3n2)c1[N+](=O)[O-]`, 17.2%; in that of `Cc1cccc(-c2nnn(Cc3nnc(NC(=O)c4ccccc4)s3)n2)c1`, 4.02%.
With `Cc1cc(S(=O)(=O)NCC(C)C)ccc1OCC(=O)NC1CC1`, the “hERG current change (%, negative = inhibition) at 10uM” value is -8.22%.
In the case of `CC1(C)Cc2cccc(C(=O)NC3CCN(Cc4ccccc4)CC3)c2O1` it was -49.6%.
In the case of `Cc1nc2ccc(Br)cn2c1C(=O)N/N=C\c1ccccc1[N+](=O)[O-]` it was 27.6%; in that of `NC(=O)c1ccc(NC(=O)COC(=O)c2cc([N+](=O)[O-])ccc2N2CCOCC2)cc1`, -8.28%; in that of `CCOC(=O)CSc1n[nH]c(-c2cccnc2)n1`, 11.7%.
Regarding `CC(C)(C)C1C/C(=C/c2ccco2)C(=O)/C(=C/c2ccco2)C1` (centres unmarked), the “hERG current change (%, negative = inhibition) at 10uM” value is recorded as -10.3%.
Next, `COc1cc(OC)c(NC(=O)c2ccc(Br)o2)cc1Cl`: -12.2%.
Take `O=C(CCCN1C(=O)/C(=C\c2cccs2)SC1=S)Nc1ccc(O)cc1`: the “hERG current change (%, negative = inhibition) at 10uM” value stood at 22.6%.
Take `COc1ccc2oc(=O)c(C(=O)N3CCN(C(=O)c4ccco4)CC3)cc2c1`: the “hERG current change (%, negative = inhibition) at 10uM” value was -12.9%.
Turning to `O=C(COc1ccc2ccccc2c1)NCCNC(=O)COc1ccc2ccccc2c1`, the “hERG current change (%, negative = inhibition) at 10uM” value was determined as 17.2%.
Regarding `CCOC(=O)N1CCN(Cc2nc3c(c(=O)n(C)c(=O)n3C)n2Cc2cccc3ccccc23)CC1`, the “hERG current change (%, negative = inhibition) at 10uM” value is -29.2%.
With `CCOC(=O)c1ccc2cccc(C)n2c1=O`, the “hERG current change (%, negative = inhibition) at 10uM” value is given as 3.05%.
As for `NNC(=O)CNC(c1ccccc1)c1cc(Br)ccc1NC(=O)c1ccccc1Br` (centres unmarked), the “hERG current change (%, negative = inhibition) at 10uM” value was -14.9%.
In the case of `O=C1CN(C(=O)COc2ccc(Br)cc2)c2ccccc2N1` it was -20.6%.
Turning to `COc1ccc(-n2nc(C(=O)NCC(=O)NCC3COc4ccccc4O3)c3ccccc3c2=O)cc1OC` (centres unmarked), the “hERG current change (%, negative = inhibition) at 10uM” value was -6.28%.
As to `O=C(Cc1ccccc1)c1c[nH]c(C(=O)C(Cl)(Cl)Cl)c1`, the “hERG current change (%, negative = inhibition) at 10uM” value came to 18.3%.
Regarding `CCCCn1c(SCC(=O)Nc2nnc(CC)s2)nc2c1c(=O)n(C)c(=O)n2C`, the “hERG current change (%, negative = inhibition) at 10uM” value was -3.24%.
In the case of `CCOc1ccc(CCNC(=O)Cn2ncn3nc(-c4ccc(OC)cc4)cc3c2=O)cc1OCC` it was 21.1%.
Take `CCCn1c2ccccc2c2nnc(SC(CC)C(=O)Nc3sc4c(c3C#N)CCCC4)nc21` (centres unmarked): the “hERG current change (%, negative = inhibition) at 10uM” value is recorded as 25.3%.
Consider `CCOc1ccc(Cn2ccnc2CCl)cc1[N+](=O)[O-]`, for which the “hERG current change (%, negative = inhibition) at 10uM” value is recorded as -33.2%.
For the compound `COc1ccc(C(=O)NC2CCN(CC(=O)NCc3cccc(OC)c3)CC2)cc1`, the “hERG current change (%, negative = inhibition) at 10uM” value is reported as -19.9%.
In the case of `CCN(CC(=O)Nc1ccc(NC(C)=O)cc1)C(=O)CSc1ncnc2sc(C)c(C)c12` it was 8.99%; in that of `O=C(N/N=C/c1ccccc1)c1ccc(N2CCOCC2)c([N+](=O)[O-])c1`, -28.6%; in that of `COc1ccccc1NC(=O)COC(=O)c1cc([N+](=O)[O-])ccc1N1CCCC1`, -0.76%.
Next, `CSc1ccccc1C(=O)Nc1nc2ccccc2c(=O)[nH]1`: 5.96%; `COc1ccc(Cn2nnnc2C(c2ccc(C)cc2)N2CCN(C3CCCC3)CC2)cc1.Cl` (centres unmarked): -63.8%.
Next, `COc1cccc(NC(=O)CSc2nccn(-c3ccc4c(c3)OCCO4)c2=O)c1`: -13.7%; `Cc1csc(NS(=O)(=O)c2ccc(Cl)cc2)n1`: -6.37%.
As to `COc1ccc(-c2nn(-c3ccccc3)cc2CNC(C)Cn2cncn2)c(F)c1` (centres unmarked), the “hERG current change (%, negative = inhibition) at 10uM” value was -13%.
`O=C(Nc1cccc(C(=O)N2CCCCC2)c1)c1ccc(Cl)cc1`: the “hERG current change (%, negative = inhibition) at 10uM” value turned out to be 19.8%.
In the case of `CCN1C(=O)C2C(c3ccccc3F)NC(Cc3ccc(O)cc3)(C(=O)OC)C2C1=O` (centres unmarked) it was 3.06%; in that of `COc1ccc(Oc2ccccc2/C=N/O)cc1`, 4.99%.
On to `Cc1c(CCC(=O)O)c(=O)oc2cc(OCc3ccccc3F)ccc12`, for which the “hERG current change (%, negative = inhibition) at 10uM” value is given as 27.4%.
